The values that follow come from publication PMC12136788.

Substitutions are numbered along the chain they refer to. Some of the results follow.

Sequences and labels used below:
T1: UNK ZnF1-3 (human, UniProt Q9C0B0 31-174)
T1 sequence: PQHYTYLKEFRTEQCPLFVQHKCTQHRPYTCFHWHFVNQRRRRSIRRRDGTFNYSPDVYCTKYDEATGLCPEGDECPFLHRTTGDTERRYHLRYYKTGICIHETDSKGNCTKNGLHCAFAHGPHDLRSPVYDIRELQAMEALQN

B1: 60976484_60980176_644_CDS_ENSMUSG00000042506_ENSMUST00000041683|mouse|control|control (ssRNA)
RNA: GGGAGUUCUACAGUCCGACGAUCCAGUCCACGCAGACCUAUGGUACAAUUGGAGGUGAUCUUCCGCCUCUUUGGGUUAUGCUUCAGCAGUUCCAGCUCCCGUUUAGUUGGUUCCCAAGUUGAAAACUUCUCUCCAACACCUUGCAACAGAGGAUUGAGCAUCA
B2: chr6:38652254:38652255:-_ENSG00000124767_ENST00000373365|hu_hu|hu_hu_hu_mus_False|78_88 (ssRNA)
RNA: GGGAGUUCUACAGUCCGACGAUCCGAGAACUUCAUAGCAGGGAAGUCACAUUUUUGGAUUAGCGUCAGUCCAAGAACCCUCGUAUAAAAAUCCAGGGACUUCUUAGGAUCCUUAAUUCUUAGCAUCGUUUGCUGCAGUAGAAACAACAGAGGAUUGAGCAUCA
B3: chr22:19452774:19452775:-_ENSG00000070010_ENST00000399523|hu_hu|hu_hu_hu_mus_False|78_98 (ssRNA)
RNA: GGGAGUUCUACAGUCCGACGAUCCUUCUCAUUGUAGUUGAUGGCAAUCACAUCUCCGGUGGUCAGACAGGCGAAGUUUCUCAAUGCAUUUUCUAAUACCGCUUUAGGGUUGGUAAUAUCCAGGAAGUCUGGGCUCUGAGGCUGCAACAGAGGAUUGAGCAUCA
B4: chr7:137662931:137662932:-_ENSMUSG00000030850_ENSMUST00000033139|mus_mus|FALSE|FALSE (ssRNA)
RNA: GGGAGUUCUACAGUCCGACGAUCAGCGACUGCCCAACUUGUUCUUGCAGUAGCCACACUGGAAGGAGGUCUGGCCCUCAAAAUACUCUACAAGGCUAGGUGAAGGCGCGCUCCAAGAAGCCAUGUCCGCGACCCCGCCGCCGCCAACAGAGGAUUGAGCAUCA
B5: 7411140_7411260_310_5pUTR_ENSMUSG00000040021_ENSMUST00000165952|mouse|control|control (ssRNA)
RNA: GGGAGUUCUACAGUCCGACGAUCGCAUCUAUAUGUGGCCCCUGCAAAGCACUUCUUAAGGAGCUAACUCAAAGACUCAGAGCUUCUUCUGAGCCAAGGUGAAAGGGGAAGUCCCAGGAAUGUUAAAAUCCUUUACAGUGGAAGCAACAGAGGAUUGAGCAUCA
B6: 165859584_165865433_606_CDS_ENSG00000143179_ENST00000367879|human|control|control (ssRNA)
RNA: GGGAGUUCUACAGUCCGACGAUCCUCCUUCCGGGAAUGGGAGACAAAGUCAUACACGGGGAUCUGGACUGUUUUCCCUUCAGUGAUUUCUUUGAGUGUUUUGAGAAUGAGUUCAUUGUCAAAGGCAUCCGGGUGGUCAAAGUUCAACAGAGGAUUGAGCAUCA
B7: chr12:16048344:16048345:+_ENSG00000023734_ENST00000419869|hu_hu|hu_hu_hu_mus_True|98_98 (ssRNA)
RNA: GGGAGUUCUACAGUCCGACGAUCAGAUCGUCCAUAAGUUAUAACCAAAAUCUCUCCUUCAGGAAUAUACUCCAUGCUGCUAACAGACAUAUUAAAAUUCAGAGAUUUCACUUCUGUCAUUGUGGCAUGAUCCCAGAGCCGAACCAACAGAGGAUUGAGCAUCA
B8: chr11:100882373:100882374:+_ENSMUSG00000019302_ENSMUST00000044721|mus_hu|motif|central (ssRNA)
RNA: GGGAGUUCUACAGUCCGACGAUCUUCCUGGUUUGUGUUGAUUUCCUUCAGUUCAUUUUCAAUCUUCUCAAAAUUGGCCUCGGAGUCAAUCAUGUCCCGGGGGAAGGGAACCUCUGGGUUUUCACCGGUGUCCAUAAUCGGAAUCAACAGAGGAUUGAGCAUCA
B9: chr2:217001844:217001845:+_ENSG00000079246_ENST00000392132|hu_hu|hu_hu_hu_mus_False|1_68 (ssRNA)
RNA: GGGAGUUCUACAGUCCGACGAUCACCAACUUGAGGAUUAGAUCUUUUGUCAUAAGCAUAUCGGACGAUGGCCACCAUGUUUAACUCAUCCAAAGCAUGAACGAGAGAGGAAAGGGCAACAGCUGCCGCCUCAUCAUCUCUUGCCAACAGAGGAUUGAGCAUCA
B10: chr14:28285125:28285126:+_ENSMUSG00000040651_ENSMUST00000022450|mus_hu|FALSE|FALSE (ssRNA)
RNA: GGGAGUUCUACAGUCCGACGAUCCUCGGAAAGCCGUUUCAUCUUCUCUUGUGUUGAAAAGAUAGGUGUGGAAACUGUACUGACAUAUGAAACAUUCUUUUGCUUCAAAAUCUCUUCUAUCUUCCUAGAAAAGAGAUUGUACUCCAACAGAGGAUUGAGCAUCA
B11: chr11:29607950:29607951:+_ENSMUSG00000020458_ENSMUST00000102843|mus_mus|motif|central (ssRNA)
RNA: GGGAGUUCUACAGUCCGACGAUCGGGUGAGGAAUCAUCCACGAGCUCACAGUGAUCAGGCACCGACUUCUCAAAUUUUGCGGUUUCUGAAUAAUUAGAGAACUCUGGACUUGGCUCAGUGGAGAGCUUUGUUUCUUUAAUUAACAACAGAGGAUUGAGCAUCA
B12: chr1:23374948:23374949:-_ENSMUSG00000026158_ENSMUST00000027343|mus_hu|FALSE|FALSE (ssRNA)
RNA: GGGAGUUCUACAGUCCGACGAUCCCAAAUCCUAAUACUCACAGAACACUAGGAAAGCAAAAACUGGCAUAUUAUGGGAACUAAAAAUGAGAAAGUGUUCCAUACUAUACUUAUUGGAACACAAUGUACAACAAAAGUGCUACUCAACAGAGGAUUGAGCAUCA
B13: chr14:76904430:76904431:+_ENSMUSG00000022010_ENSMUST00000022587|mus_mus|mus_mus_mus_hu_True|18_48 (ssRNA)
RNA: GGGAGUUCUACAGUCCGACGAUCUGCAGCCAAAAACACCCUCGUGGAAAAAAAGAGGGAACACCAGCAGCCUUGUAUAAGCUAGAUAAAACCGCCUGGCUUUCCGCAGCCCAGGGAGUGAGAACGGACGGCAGCCCUAAUUUACAACAGAGGAUUGAGCAUCA
B14: chr2:217001844:217001845:+_ENSG00000079246_ENST00000392132|hu_hu|hu_hu_hu_mus_False|18_108 (ssRNA)
RNA: B9 RNA with A27G, C72G, A120U, U123A, C126U, U138C, C139U
B15: chr18:52893488:52893489:-_ENSG00000196628_ENST00000354452|hu_hu|hu_hu_hu_mus_True|1_8 (ssRNA)
RNA: GGGAGUUCUACAGUCCGACGAUCUAUUUAGACCAUUUCCGCGGAGUUAUGGCAUUUACUCAGUGCUGAUAGGUGGAAAAACUACUUCAACAGGGAUUUUUUUUUUCCUUAAUACAUGCCAAGAUUGGUGUGGCUGUAAAAAUACAACAGAGGAUUGAGCAUCA
B16: chr9:14812383:14812384:-_ENSMUSG00000031934_ENSMUST00000164273|mus_mus|motif|central (ssRNA)
RNA: GGGAGUUCUACAGUCCGACGAUCAUAGCUCAAGUAGAUACAUGCCAACAGUAUAACCACAAAUGUCACCAGCCGGCAGCGGAUGUAUUUCAUGAUUAAAUGACUAGAGUUCUUUUUUGUCUUCAAGUACUGCUCCACGAUUGGCAACAGAGGAUUGAGCAUCA
B17: chr19:45826695:45826696:-_ENSMUSG00000025220_ENSMUST00000026243|mus_mus|motif|central (ssRNA)
RNA: GGGAGUUCUACAGUCCGACGAUCACCAAGUAUAACCACAUCCUUUGGAAAUCCUUCCAUUUUUGCAAUUUCAAAACAGCCGGACUUGCUGUAAAAUUCCAGAAUCCUUUUAUCAUCUGGUCUUACUUCACAGAAAGCCCCCCGCAACAGAGGAUUGAGCAUCA
B18: chr4:6323411:6323412:-_ENSMUSG00000028245_ENSMUST00000029910|mus_mus|FALSE|FALSE (ssRNA)
RNA: GGGAGUUCUACAGUCCGACGAUCAUAUUUUUAAUGUAGAAAAGAUGAACCUUUAGUAGCAUAAUGAAAUAUAAACCAUUGCUAUACACAGUAACAGACUUAAUGUUAUUAAGAAUCUGGGCACGCAGCACUGCCGAAAGGAACCAACAGAGGAUUGAGCAUCA
B19: 97413068_97416379_144_CDS_ENSG00000059573_ENST00000371224|human|control|control (ssRNA)
RNA: GGGAGUUCUACAGUCCGACGAUCCUUGACCCAGGGCAGAAGAUGUUGGUUGAAGGGCUGGAACCCACAGCGGUAAACUUGACUCAACAUGCUGCGAUGUGGUCACUAACCAAAGUAUCUUCCUCACCACCGCCGCCUUCGCCCCAACAGAGGAUUGAGCAUCA
B20: chr6:170626544:170626545:+_ENSG00000112584_ENST00000537664|hu_hu|motif|central (ssRNA)
RNA: GGGAGUUCUACAGUCCGACGAUCAGGGGUACAUCCAGGAUACUUGCUUCGGUGGUGCUCUGCCAGUUCUUUGAAAUUUACGGCUGUACAUAUAUGUGGGCAGGUACUUCCCACAAAUCCUUGCAAACCUCUCACACCCAUAACCAACAGAGGAUUGAGCAUCA
B21: chr4:76721835:76721836:+_ENSG00000138768_ENST00000264904|hu_mus|hu_hu_hu_mus_True|1_98 (ssRNA)
RNA: GGGAGUUCUACAGUCCGACGAUCGUUUGGCUGGGGUUCUGAGAUGCCUCUGGAAUAUAACUCAUGUUUGCUAAUAAAUCCUAGUUUCUCUAUGAAAUUCUCUUUGCCAAUCCUCUUCUCUAUUAGUUGCUUUAGUUCUCUUUCCAACAGAGGAUUGAGCAUCA
B22: 139069893_139071599_791_CDS_ENSG00000175110_ENST00000310776|human|control|control (ssRNA)
RNA: GGGAGUUCUACAGUCCGACGAUCAAUCUUUUUAUUAUUUACAAAAUACCACACCAUUCCACCAAAGUAUCUUGUUGAACGUAAAAGGUCAUAUUUUCCACGUUUAUCUAUAUCUUCAUAGGUCUUGUGAUGAACCUUGAUAUACAACAGAGGAUUGAGCAUCA

This experiment has as its target T1, UNK ZnF1-3. As to the kind of experiment: nsRBNS (natural sequence RNA bind-n-seq); RBNS binding buffer (assumed for nsRBNS): 25 mM Tris pH 7.5, 150 mM KCl, 3 mM MgCl2, 0.01% Triton X-100, 500 ug/ml BSA, 20 U/ml SUPERase-In, 4 C; UNK is unkempt and MSI1 is Musashi-1; names of the RNAs are library labels; protein concentration not given here; high values mean tight binding.
With B1, the binding signal was 0.493 enrichment R.

Turning to B2, the binding signal came out at 1.3 enrichment R.

B3 returned a binding signal of 1.04 enrichment R.

As to B4, the binding signal was determined as 0.96 enrichment R.

B5 came in with a binding signal of 1.31 enrichment R.

In the case of B6, the binding signal turned out to be 0.898 enrichment R.

Molecule B7 gave a binding signal of 1.32 enrichment R.

Molecule B8 showed a binding signal of 0.619 enrichment R.

Take B9: the binding signal was 1.5 enrichment R.

B10 returned a binding signal of 0.681 enrichment R.

The molecule B11 registered a binding signal of 0.663 enrichment R.

In the case of B12, the binding signal turned out to be 0.994 enrichment R.

In turn, B13 displayed a binding signal of 1.97 enrichment R.

In turn, B14 displayed a binding signal of 1.62 enrichment R.

On to B15, for which the binding signal came out at 0.952 enrichment R.

Regarding B16, the binding signal was 1.08 enrichment R.

For the molecule B17, the binding signal is 0.673 enrichment R.

B18 came in with a binding signal of 0.888 enrichment R.

Consider B19, for which the binding signal is 0.991 enrichment R.

B20 displayed a binding signal of 0.959 enrichment R.

Turning to B21, the binding signal turned out to be 0.49 enrichment R.

The molecule B22 displayed a binding signal of 0.449 enrichment R.
